No constants are given. Whether binding was seen depends on the method and setting. For part of these data: In cells and extracts the contact can be indirect. Some results given as binding are weak or reduced against the parent protein; the word gives no strength. Where a sequence is shown, tags or fusion partners need not be part of it. Values belong to the binder of their own block, whether it stands above or below them.
Experiments:
[1] = target: T1, GLI pathogenesis-related 1-like 1 (GLIPR1L1) (mouse (endogenous in mouse spermatozoa)) (UniProt Q9DAG6); assay: co-IP; reciprocal; antibody cross-linked (DTSSP) to protein G magnetic beads, about 100 μg pre-cleared lysate of acrosome-reacted mouse spermatozoa, overnight at 4 °C, immunoblot
T1 sequence: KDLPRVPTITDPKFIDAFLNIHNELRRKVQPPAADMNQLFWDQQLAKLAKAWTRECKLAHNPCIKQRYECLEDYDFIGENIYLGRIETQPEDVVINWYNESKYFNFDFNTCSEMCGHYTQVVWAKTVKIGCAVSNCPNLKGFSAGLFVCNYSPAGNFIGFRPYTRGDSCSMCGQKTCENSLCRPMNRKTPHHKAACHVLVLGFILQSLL

[2] = target: T2, Izumo sperm-egg fusion protein 1 (IZUMO1) (mouse (endogenous in mouse spermatozoa)) (UniProt Q9D9J7); assay: proximity ligation; in situ PLA with IZUMO1 and GLIPR1L1 antibodies on cells fixed in 4% PFA: pachytene spermatocytes, round spermatids and acrosome-reacted spermatozoa
T2 sequence: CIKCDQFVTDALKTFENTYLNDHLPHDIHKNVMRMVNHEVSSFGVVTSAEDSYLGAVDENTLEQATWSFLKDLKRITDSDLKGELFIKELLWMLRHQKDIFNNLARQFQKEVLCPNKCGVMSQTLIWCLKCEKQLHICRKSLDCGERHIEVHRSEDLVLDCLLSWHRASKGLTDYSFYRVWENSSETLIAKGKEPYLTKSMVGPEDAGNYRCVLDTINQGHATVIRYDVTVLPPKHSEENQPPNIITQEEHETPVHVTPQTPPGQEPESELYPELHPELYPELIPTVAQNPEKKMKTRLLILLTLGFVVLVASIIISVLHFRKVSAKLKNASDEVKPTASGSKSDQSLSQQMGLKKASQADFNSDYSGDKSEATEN

[3] = target: T2, Izumo sperm-egg fusion protein 1 (IZUMO1) (mouse (endogenous in mouse spermatozoa)); assay: co-IP; reciprocal; antibody cross-linked (DTSSP) to protein G magnetic beads, about 100 μg pre-cleared lysate of acrosome-reacted mouse spermatozoa, overnight at 4 °C, immunoblot
[4] = target: T2, Izumo sperm-egg fusion protein 1 (IZUMO1) (mouse (endogenous in mouse spermatozoa)); assay: condition: only in epididymal spermatozoa before the acrosome reaction; proximity ligation; in situ PLA with IZUMO1 and GLIPR1L1 antibodies on fixed epididymal (acrosome-intact) spermatozoa
[5] = target: T2, Izumo sperm-egg fusion protein 1 (IZUMO1) (mouse (endogenous in mouse spermatozoa)); assay: native gel or EMSA; 1D and 2D BN-PAGE of mouse sperm lysates (non-capacitated, capacitated, acrosome-reacted); band of complex I excised for mass spectrometry; immunoblots with IZUMO1 or GLIPR1L1 antibodies
[6] = target: T2, Izumo sperm-egg fusion protein 1 (IZUMO1) (mouse (endogenous in mouse spermatozoa)); assay: proximity ligation; in situ PLA on fixed spermatozoa, negative controls with paired antibodies (IZUMO1 and tubulin; IZUMO1 and acrosin)

binding [1]: binds
B1: Izumo sperm-egg fusion protein 1 (IZUMO1) (protein, UniProt Q9D9J7 22-397)
chain: CIKCDQFVTDALKTFENTYLNDHLPHDIHKNVMRMVNHEVSSFGVVTSAEDSYLGAVDENTLEQATWSFLKDLKRITDSDLKGELFIKELLWMLRHQKDIFNNLARQFQKEVLCPNKCGVMSQTLIWCLKCEKQLHICRKSLDCGERHIEVHRSEDLVLDCLLSWHRASKGLTDYSFYRVWENSSETLIAKGKEPYLTKSMVGPEDAGNYRCVLDTINQGHATVIRYDVTVLPPKHSEENQPPNIITQEEHETPVHVTPQTPPGQEPESELYPELHPELYPELIPTVAQNPEKKMKTRLLILLTLGFVVLVASIIISVLHFRKVSAKLKNASDEVKPTASGSKSDQSLSQQMGLKKASQADFNSDYSGDKSEATEN

binding [2]: binds
binding [3]: binds
binding [4]: no binding
B2: GLI pathogenesis-related 1-like 1 (GLIPR1L1) (protein, UniProt Q9DAG6 28-236)
chain: KDLPRVPTITDPKFIDAFLNIHNELRRKVQPPAADMNQLFWDQQLAKLAKAWTRECKLAHNPCIKQRYECLEDYDFIGENIYLGRIETQPEDVVINWYNESKYFNFDFNTCSEMCGHYTQVVWAKTVKIGCAVSNCPNLKGFSAGLFVCNYSPAGNFIGFRPYTRGDSCSMCGQKTCENSLCRPMNRKTPHHKAACHVLVLGFILQSLL
binding [5]: binds

binding [6]: no binding
B3: acrosin (protein, UniProt P23578 20-436)
chain: KDNTTCDGPCGLRFRQNSQAGTRIVSGQSAQLGAWPWMVSLQIFTSHNSRRYHACGGSLLNSHWVLTAAHCFDNKKKVYDWRLVFGAQEIEYGRNKPVKEPQQERYVQKIVIHEKYNVVTEGNDIALLKITPPVTCGNFIGPCCLPHFKAGPPQIPHTCYVTGWGYIKEKAPRPSPVLMEARVDLIDLDLCNSTQWYNGRVTSTNVCAGYPEGKIDTCQGDSGGPLMCRDNVDSPFVVVGITSWGVGCARAKRPGVYTATWDYLDWIASKIGPNALHLIQPATPHPPTTRHPMVSFHPPSLRPPWYFQHLPSRPLYLRPLRPLLHRPSSTQTSSSLMPLLSPPTPAQPASFTIATQHMRHRTTLSFARRLQRLIEALKMRTYPMKHPSQYSGPRNYHYRFSTFEPLSNKPSEPFLHS

From paper PMC6824042
